Laboratory results taken from paper PMC4336329 (PLoS ONE, 2015).
Hit rate of the full screen: of about 310,000 compounds, about 2,200 (0.71%) showed an effect of 50% or more. The effect is printed as a negative number. The list shows a part of the results.

Target: human ether-à-go-go-related gene (hERG) potassium channel (human, UniProt Q12809)
Test: primary screen, population patch clamp on CHO cells stably expressing hERG

Chain of human ether-à-go-go-related gene (hERG) potassium channel (Q12809 whole entry, looked up): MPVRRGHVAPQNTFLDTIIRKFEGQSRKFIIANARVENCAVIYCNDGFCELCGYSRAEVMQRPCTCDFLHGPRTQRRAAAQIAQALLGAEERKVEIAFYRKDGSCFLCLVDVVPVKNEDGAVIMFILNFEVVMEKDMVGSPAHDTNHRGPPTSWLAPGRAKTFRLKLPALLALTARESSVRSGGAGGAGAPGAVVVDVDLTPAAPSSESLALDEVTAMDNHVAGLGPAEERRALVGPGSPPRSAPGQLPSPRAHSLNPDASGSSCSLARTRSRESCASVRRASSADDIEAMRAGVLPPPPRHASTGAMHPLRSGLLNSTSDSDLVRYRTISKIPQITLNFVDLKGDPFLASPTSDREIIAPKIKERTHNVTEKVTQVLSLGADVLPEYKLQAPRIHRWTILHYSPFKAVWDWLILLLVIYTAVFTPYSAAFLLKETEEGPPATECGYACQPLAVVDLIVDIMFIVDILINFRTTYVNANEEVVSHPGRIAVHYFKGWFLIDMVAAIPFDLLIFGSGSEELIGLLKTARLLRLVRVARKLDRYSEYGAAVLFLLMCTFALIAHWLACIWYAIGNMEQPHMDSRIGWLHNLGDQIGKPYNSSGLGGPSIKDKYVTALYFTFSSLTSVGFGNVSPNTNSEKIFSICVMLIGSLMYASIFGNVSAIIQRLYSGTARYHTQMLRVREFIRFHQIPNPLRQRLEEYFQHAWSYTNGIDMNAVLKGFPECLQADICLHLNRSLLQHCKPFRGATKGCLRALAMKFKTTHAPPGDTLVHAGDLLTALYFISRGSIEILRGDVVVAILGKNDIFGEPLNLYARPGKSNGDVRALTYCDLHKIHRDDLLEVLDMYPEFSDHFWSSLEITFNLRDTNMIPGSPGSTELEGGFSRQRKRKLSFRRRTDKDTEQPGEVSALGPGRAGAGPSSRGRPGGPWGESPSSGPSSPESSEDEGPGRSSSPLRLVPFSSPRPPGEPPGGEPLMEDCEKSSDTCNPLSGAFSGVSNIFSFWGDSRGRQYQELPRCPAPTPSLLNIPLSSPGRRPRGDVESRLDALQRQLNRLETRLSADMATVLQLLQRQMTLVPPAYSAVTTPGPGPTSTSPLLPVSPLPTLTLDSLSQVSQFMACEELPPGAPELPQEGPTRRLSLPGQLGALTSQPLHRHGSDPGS

| SMILES | hERG current change (%, negative = inhibition) at 1uM [%] |
| --- | --- |
| Cl.Fc1ccccc1Nc1nc(Cl)nc(Cl)n1 | 10.9 |
| O=C(NCC(c1ccco1)N1CCN(c2ccccc2)CC1)C(=O)NC1CCCCC1 (centres unmarked) | 6.05 |
| CCSc1nc2sc3c(c2c(=O)[nH]1)CC(C)(C)OC3 | 16.7 |
| C=CCNc1cnn(-c2ccc(C)cc2)c(=O)c1Cl | -1.78 |
| COc1ccc(C(=O)NCC2OCCc3ccccc32)cc1 (centres unmarked) | 3.13 |
| O=C1CC(C(=O)N2CCN(c3ccccc3O)CC2)CN1Cc1ccccc1 (centres unmarked) | -9.5 |
| CCC(=O)Oc1ccc(-c2nc(-c3cccnc3)no2)cc1 | 19.9 |
| Cn1c(Cc2cccs2)nnc1SCC(=O)N1CCCc2ccccc21 | 9.19 |
| Cc1c(NC(=O)C(C)OC(=O)c2ccc([N+](=O)[O-])s2)c(=O)n(-c2ccccc2)n1C (centres unmarked) | -19.3 |
| Cc1ccc(S(=O)(=O)n2nc(-c3ccco3)nc2N)cc1 | -4.62 |
| COc1ccc(C)c2sc(NC(=O)CCS(=O)(=O)c3ccccc3)nc12 | 7.72 |
| CNC(=S)NC1(C)CCS(=O)(=O)C1 (centres unmarked) | 8.8 |
| CSc1nc2ccc(S(=O)(=O)N(C)C)cc2s1 | 5.4 |
| O=C(CCc1nc2ccccc2c(=O)[nH]1)OCc1cccc(C(F)(F)F)c1 | 9.35 |
| CN1CCN(CC(O)COc2ccc(Cl)cc2)CC1.Cl (centres unmarked) | -5.93 |
| Cn1cc(CN2CCC(C(O)c3cccs3)CC2)c(-c2ccccc2F)n1 (centres unmarked) | 6.56 |
| NC(=O)C1CCN(C(=O)NC(=O)c2ccccc2)CC1 | -5.92 |
| CC(C)(C)c1ccc(C(=O)NC(=S)Nc2ccc(N3CCOCC3)cc2)cc1 | 9.39 |
| Cc1c(/C=N/NC(=O)c2ccc(O)cc2)c2ccccn2c1C(=O)c1ccc(F)cc1 | 7.27 |
| COc1ccccc1N1CCN(CCCNC(=O)Nc2ccccc2)CC1 | -28.8 |
| O=C(CCCN1C(=O)/C(=C\c2ccccc2)SC1=S)Nc1cccc(C(=O)O)c1 | 9.83 |
| CN1CCN(CCCN(Cc2cccs2)C(=S)Nc2ccc(Cl)cc2)CC1 | -31.9 |

| SMILES | hERG current change (%, negative = inhibition) at 1uM [%] |
| --- | --- |
| COc1ccc([N+](=O)[O-])cc1NC(=O)CC(C)c1ccccc1 (centres unmarked) | 5.66 |
| COc1cccc(CN(C)C(=O)c2ccc(S(=O)(=O)N3CCCC3)cc2)c1OC | 0.226 |
| CCOC(=O)CN1C(=O)N[C@@H](CCc2ccccc2)C(C(=O)OC)=C1C | 8.17 |
| CCOc1ccc(NC(=O)NNC(=O)c2ccc(CC)s2)cc1 | 8.15 |
| Cc1cc(C)cc(N(C(C)C(=O)NCc2ccc3c(c2)OCO3)S(C)(=O)=O)c1 (centres unmarked) | 15.7 |
| CC1(C)C2([N+](=O)[O-])CN3CC1([N+](=O)[O-])CN(C2)C3c1ccccn1 (centres unmarked) | 15.1 |
| Cc1ccc2nc(-c3ccccn3)cc(C(=O)Nc3ccc(S(=O)(=O)N4CCOCC4)cc3)c2c1 | 15.8 |
| O=C(NC1=NCCS1)c1cccc2ccccc12 | 8.28 |
| COC(=O)CCCC(=O)Nc1c(F)c(F)c(F)c(F)c1F | 7.53 |
| Cc1ccc(S(=O)(=O)N2CCN(C(=O)C(F)(F)F)C2c2ccc(N(C)C)cc2)cc1 (centres unmarked) | 15.1 |
| CN1C[C@@H]2C(c3ccc(Cl)nc3)C3(c4cccnc4)CC2(C3)[C@H]1c1ccccc1 (some centres unmarked) | -13 |
| CS(=O)(=O)c1ccc(NC(=O)C2CC(=O)N(c3ccc4c(c3)OCCO4)C2)cc1 (centres unmarked) | 15.4 |
| Cc1cc(NC(=O)CCC(=O)N(c2cccnc2)C(C(=O)NC2CCCC2)c2ccccc2)no1 (centres unmarked) | 15.7 |
| O=C(CC(=O)c1ccccc1O)c1ccc(F)cc1 | 7.4 |
| O=[N+]([O-])c1ccc(NNC(=S)Nc2ccc(F)cc2)cc1 | 5.09 |
| COc1ccc(C(CNC(=O)c2ccc(-n3cnnn3)cc2)N2CCOCC2)cc1 (centres unmarked) | -7.62 |
| CC(CC(=O)O)CC(=O)Nc1cc([N+](=O)[O-])ccc1O (centres unmarked) | 9.09 |
| CC(=O)NCc1ccc2[nH]c(C)cc2c1 | 21.4 |
| CC(C)C(C(=O)NCc1ccccc1)N(CC1CCCO1)C(=O)CNS(=O)(=O)c1ccccc1 (centres unmarked) | 12.2 |
| O=C(NC(=S)Nc1ccc(Cl)cc1)c1cncc(Br)c1 | 1.69 |
| Cc1ccc(S(=O)(=O)NCC(=O)NCC(=O)OCc2c(F)cccc2Cl)cc1 | 5.06 |
| C#CCOCCOCCOCCNc1nc(N2CCN(C(=O)[C@H](Cc3ccc(O)cc3)n3cc([C@@H](N)C(C)CC)nn3)CC2)nc(N2CCN(C(=O)[C@H](CCCCN)n3cc([C@@H](N)CO)nn3)CC2)n1.Cl (some centres unmarked) | 12.4 |

| SMILES | hERG current change (%, negative = inhibition) at 1uM [%] |
| --- | --- |
| COCCN(Cc1cc2cc3c(cc2n2nnnc12)OCO3)C(=O)c1ccccc1F | -4.1 |
| CCN(CC)CCCNCC(=O)Nc1ccc2c(c1)CCC2 | 7.47 |
| CCOc1ccc(Nc2nc(NCC(=O)O)nc(N)c2[N+](=O)[O-])cc1 | 15.3 |
| CSc1ccc(Cl)c(C(=O)OCC(=O)N2CCNC2=O)c1 | 0.583 |
| COc1ccc(NC(=O)CSc2ccccc2)c([N+](=O)[O-])c1 | 5.46 |
| O=C(COC(=O)c1cccc(S(=O)(=O)NCc2ccccc2)c1)c1ccc2c(c1)OCCO2 | 9.41 |
| O=S(=O)(c1ccc(Br)s1)N1CCN(c2ncccn2)CC1 | 7.4 |
| CCOC(=O)c1c(C)n(C)c2c(C)cc(O)c(OC(=O)CC)c12 | 9.43 |
| COCCN(C(=O)COC(=O)C1CC1)c1c(N)n(Cc2ccccc2)c(=O)[nH]c1=O | -7.91 |
| Cc1ccc(NC(=O)c2nc[nH]c2C(=O)NCC(=O)OC(C)(C)C)cc1 | -10.1 |
| CNCc1ccccc1OCC(=O)Nc1ccccc1 | 10.6 |
| COc1ccccc1NC(=O)CSc1nnc(C2CCCCC2)o1 | 4.22 |
| CCCCCc1cc(=O)oc2c(C(CCN3CCCCC3)c3cc(OC)c(OC)c(OC)c3)c(OC)cc(OC)c12 (centres unmarked) | -10.6 |
| CCOC(=O)c1ccc(NC(=O)c2ccc(CN3CCc4ccccc4C3)cc2)cc1 | 15.8 |
| O=C(CCc1n[nH]c(=O)[nH]c1=O)N/N=C/c1ccco1 | 18.4 |
| O=C1COc2ccc(C(=O)CSc3nnc(NCc4ccccc4)s3)cc2N1 | -3.95 |
| Cc1ccsc1/C=N/Nc1nc2ccccc2s1 | -7.03 |
| CC1(C)CC[C@]2(C(=O)O)CC[C@]3(C)C(=CCC4[C@@]5(C)CC[C@H](O)C(C)(C)C5[C@H](O)C[C@]43C)[C@@H]2C1 (some centres unmarked) | 7.52 |
| c1ccc(-c2cc(N3CCCCC3)nc(-c3ccccc3)n2)cc1 | 11.5 |
| COc1ccc(CCN(/C=C2\Sc3ccccc3C2=O)C(C)=O)cc1OC | 17.4 |
| Cc1nn(-c2ccccc2)c2nc(C(Cl)(Cl)Cl)[nH]c(=O)c12 | 6.29 |
| O=C(Cn1nc(Cc2cccnc2)c2ccccc2c1=O)NCCCN1CCCC1=O | -2.58 |

| SMILES | hERG current change (%, negative = inhibition) at 1uM [%] |
| --- | --- |
| COc1ccc(NC(=O)CN(C)C(=O)c2cc(-c3cccs3)nn2-c2ccccc2)cc1 | 10.5 |
| O=C(O)COc1ccccc1/C=N/NC(=O)CSc1nnc(SCc2ccccc2)s1 | 4.1 |
| O=c1c2ccccc2nnn1CSc1nnc(-c2cccc(S(=O)(=O)N3CCCCC3)c2)o1 | 6.12 |
| CC(C)CC(NC(=O)CCCNC(=O)CCC(=O)OC1O[C@H]2OC3(C)CC[C@H]4[C@H](C)CCC(C1C)C24OO3)C(=O)O (some centres unmarked) | 7.6 |
| O=C(CSc1nc2ccccc2n1-c1ccccc1)Nc1ncc(Cl)cc1Cl | 6.36 |
| CCOc1ccc2ccccc2c1/C=N/NC(=O)c1c(C)cc(C)[nH]c1=O | 9.98 |
| FC(F)(F)c1ccc(Oc2ccc3cc(Br)ccc3c2)nc1 | 8.21 |
| Cc1cc(=O)[nH]c(SCC(=O)Nc2ccc(Br)cc2)c1C#N | 5.49 |
| Cc1cc(NC(=O)c2cccnc2)ccc1Br | 6.96 |
| CCO/C=C1\N=C(c2ccc(F)cc2)OC1=O | 15.9 |
| O=C(Nc1ccccc1C(=O)N1CCCC1)c1ncoc1-c1cccc(Cl)c1 | 12.9 |
| CC(C)(C)C(=O)COC(=O)C1=NN(c2ccccc2)C(=O)CC1 | 14.6 |
| N#CCCN(Cc1cccnc1)C(=O)Nc1cccc(Cl)c1 | -8.11 |
| c1cncc(-c2nnc(-c3cccs3)o2)c1 | 8.95 |
| O=C(CSc1nncs1)N1CCN(S(=O)(=O)c2ccccc2)CC1 | 2.44 |
| Cc1cccc(-n2c3nc(=O)[nH]c(=O)c-3cc3cc([N+](=O)[O-])ccc32)c1 | 1.38 |
| O=C(CSc1ccc2nnc(-c3cccnc3)n2n1)Nc1ccccc1C(F)(F)F | 10.2 |
| Cc1ccc(C)c(NC(=O)COC(=O)Cc2ccsc2)c1 | 8 |
| CCCN1CNC(=S)N(Cc2ccccc2)C1 | 11.2 |
| CCOC(=O)COc1nc(OC)nc(N2CCOCC2)n1 | 8.45 |
